# ± gives the standard deviation of the averaged measurements. Some of the results follow.
# System: PfAP2-LT AP2 domain (GST-tagged)
# Assay: gcPBM binding intensity (ln(normalized median fluorescence intensity)); higher = stronger DNA binding
# Procedure, shortened: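 The binding buffer was 1× PBS containing 1% milk, 0.2 mg/ml BSA, 0.5% salmon testes DNA and 0.03% Triton X-100. In it, GST-tagged P. falciparum DNA-binding domains expressed in E. coli were applied for 1 h to an Agilent 4 × 180k array of primer-extended double-stranded 36-bp intergenic genomic probes plus negative controls. Binding intensity, read with Alexa488 anti-GST antibody and a 488 nm scan, is the highest Masliner-normalised natural-log median intensity across replicate spots of either probe orientation.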
row,Sequence,gcPBM binding intensity (ln)
1,ATATATATATATATTACACACATGTGCAATTAAAAT [CACACA_site1778],9.37 ± 0.33
2,AATTGAAAAATCAGCACACACACAAATACATACATA [CACACA_site3232],9.885 ± 0.064
3,TGGTAATACACATACACACACACATACACATATATA [CACACA_site7312],9.96 ± 0.32
4,GCTATATATTACAATCGTACAATATATATATATATA [XGTACX_site6730],9.07 ± 0.42
5,AATACTTTTTATTTAGTGCATAAGAAAATATAAATC [GTGCAC_site9875],8.48 ± 0.4
6,TATAAAATATGTATGAGGAATAAAATTAAAAAAAAA [TGCATGCA_negctrl_site178],8.49 ± 0.52
7,AAAAAAAAAAATTCGGTGCAATGTAATTAATGTAAA [GTGCAC_site9588],8.73 ± 0.47
8,TGAATTCATAGCAGTTGTACATTGCATGAAGAAACG [XGTACX_site3312],8.9 ± 0.45
9,TGTTCCGAAGGTTGTACACACATAGAAATATACATA [CACACA_site3874],8.98 ± 0.5
10,TTTTTAAAACCTTACATACACACAAATATATATATA [CACACA_site678],8.76 ± 0.31
11,TCTTGTATACGGCATGCATGTTAGCACATACGGACA [TGCATGCA_site146],8.9 ± 0.32
12,TCTTTTTTTACTTTCTTTTTTTTTTTTTTTTTTTTT [XGTACX_negctrl_site610],8.36 ± 0.71
13,TGTTAATTAAAACATCATTAATATTATTAAAAATAC [XGTACX_negctrl_site509],8.3 ± 0.39
14,AATTGATACCTTACATGTACATAATATATATAAATA [XGTACX_site321],8.77 ± 0.4
15,GAACCATTTTTTGGTATACACACGTAATTATATAAT [CACACA_site8552],8.88 ± 0.36
16,TTTTTACATACAAATTAACACACATATAGAAAAGAG [CACACA_site8570],8.86 ± 0.37
17,CCTTTATAAAAAAGTAGTACACAATGAATTTATAAT [XGTACX_site5523],8.6 ± 0.49
18,CAATACTAATTGTATACACACAAAAATATACCATAT [CACACA_site3326],9.1 ± 0.47
19,TATATTTATAGACACACACACAAAAAAAAAAAAAAA [CACACA_site6818],9.29 ± 0.5
20,TAATTTTTTTTATTATGTACTTAATAAATGTTAATT [XGTACX_site365],8.59 ± 0.52
21,AAATTATTTATATGTTGTACTTATCCATTTTTATAA [XGTACX_site7441],8.84 ± 0.42
22,TATACGCATATATAAACACACAAAAAAAAAAAAAAA [CACACA_site2026],8.86 ± 0.48

row,Sequence,gcPBM binding intensity (ln)
1,TTAGCTACACGCTAATGTACACAAATACAAAGAAAA [XGTACX_site3993],8.69 ± 0.52
2,TATATTAATTTATATCAACACACAAAATCAATATAC [CACACA_site8518],8.84 ± 0.38
3,AAGAATGTTATATTATGATGCTGTCTTTTTTTAAGA [CACACA_negctrl_site251],8.49 ± 0.35
4,ATAAAATATTATATATATATATATATATATATATAT [CACACA_negctrl_site215],9.18 ± 0.28
5,TTTTTTTTTAATTATGCATGTAAATTATATATTATA [TGCATGCA_site335],8.51 ± 0.49
6,AATAAACATATATGTACACACATATACATATATATA [CACACA_site2848],9.12 ± 0.36
7,TATTTATAATTAAATACACACATATATTATATATTT [CACACA_site616],8.82 ± 0.46
8,AATATTTATTTAATTTCACACAGGTCTTTTTTTTTT [CACACA_site5188],8.78 ± 0.51
9,TTGTTCTTATTTCATTTTTATATGATATTTCATTAT [CACACA_negctrl_site1619],8.96 ± 0.49
10,GAGAAAAGGAAATAACGTACACATATGCATATCCAA [XGTACX_site5858],9.13 ± 0.54
11,TGAAAGAAGCATAAATGTACACACATATTTATATAT [XGTACX_site2645],9.01 ± 0.46
12,TATTTATTGTGACACTTTTATTATTTTATGATAAAA [CACACA_negctrl_site37],8.56 ± 0.49
13,GTGTTCTTGTTATACACACACATATATATATATATA [CACACA_site1032],9.83 ± 0.057
14,GTAATATTTTATAGTAGTACATATTTTTATTATTTT [XGTACX_site3333],8.68 ± 0.47
15,GAGAGGTCAGTTCACAGTACCCAGAAACTCTACGAG [XGTACX_site2559],8.62 ± 0.51
16,TACAATCTAAAATACACACGCACACCGAAAAAAAAA [CACACA_site3520],9.37 ± 0.35
17,TATATATATAATTAAGCATGCTAGAAACCTTTGAAA [TGCATGCA_site489],8.71 ± 0.42
18,ATATATATATATATATGTACATATTTTTGTTTGATG [XGTACX_site51],9.96 ± 0.15
19,CAGATATTCATATAAACACACATACAAATTATGTAT [CACACA_site4258],8.96 ± 0.38
20,ATATATATATATATTGCACACACAATTATTATTATT [CACACA_site8721],9.49 ± 0.11
21,TAACATATAAGTGTGTGTACGTACTGCGTATAATAT [XGTACX_site8597],9.54 ± 0.26
22,TGAATATATAAATATGCACACTTCTATTATAAATAA [CACACA_site5796],8.72 ± 0.39

row,Sequence,gcPBM binding intensity (ln)
1,GACAAACAATATGAATGTACATAAAAATATAACTAA [XGTACX_site1167],9.04 ± 0.49
2,TGAAGAATATTTTTCACACATATATATATATATATA [CACACA_site6080],9.62 ± 0.35
3,TTTTAACATATAAGTACACACATATAATCAATCATA [CACACA_site2325],8.87 ± 0.42
4,ATATAATATTTATATGTACACACCTTAATCCTTAAA [CACACA_site3555],8.77 ± 0.47
5,ATAAACGTTTTTGAAAGTACATATCATTCATTTGAT [XGTACX_site200],8.73 ± 0.28
6,AAAAAAATTAATATGTCAGCACATATATACATACAT [GTGCAC_negctrl_site110],8.88 ± 0.41
7,TATATATATAAAAAAGCACACATACATACATACATA [CACACA_site8196],9.13 ± 0.33
8,CCTTATAAATACTGCACACATAAAATATATATTATC [CACACA_site2806],9.09 ± 0.35
9,TTTGTTCATATGAAATGTACAAAAAAAAAAAAAAAA [XGTACX_site8849],8.42 ± 0.34
10,TTTTATCGTTTTTTTTTTTTTTTTTTTTTTTTTTTT [CACACA_negctrl_site1309],8.71 ± 0.26
11,ATGTAGAAGTAATGCACACATATGTATTTATATATA [CACACA_site5391],9.23 ± 0.5
12,TCTGAAAATTAGAAAAGTACAAAATGGTATAGGAAA [XGTACX_site4396],8.75 ± 0.45
13,ATACAAATTTATATTTCACACATTATTATATACTTA [CACACA_site6034],8.85 ± 0.41
14,ATATATATATATAAATGTACAGGCTTATCTCTTATT [XGTACX_site1828],9.15 ± 0.21
15,TGTATTATATATGTGTGTACATATTTTTTTTTTTTT [XGTACX_site3351],9 ± 0.49
16,AAATTATTTCAAATGTTGCACTAAAAATAAAATTAT [GTGCAC_site9460],8.31 ± 0.41
17,TTTTTATTTATATTTCATTGAAGTTAAATTATTTTA [XGTACX_negctrl_site575],8.2 ± 0.65
18,TACATTCTAATAATTGCACACTGGTTATTAAAAGGA [CACACA_site1614],8.64 ± 0.39
19,TTTTATCAATAAATTCGTACACATGAACTAGAGAGT [XGTACX_site5758],8.63 ± 0.41
20,ATTAGTATATTTCTCTGTACTTACATTAAAATATAA [XGTACX_site2217],8.61 ± 0.35
21,AATTTAATATTCATCTCTAAAGCTATAACAATTACT [CACACA_negctrl_site1079],8.51 ± 0.42
22,TCCTTAAAATATGGTTGTACGTACATCCTAGGTGTT [XGTACX_site7068],8.86 ± 0.45

row,Sequence,gcPBM binding intensity (ln)
1,AAAAAAAAGAAAAAAAAAAAAAAAAAAAAAAAAAAA [CACACA_negctrl_site489],8 ± 0.35
2,CGCACACGCAGACACACACACACATATAAATAAATA [CACACA_site7101],9.74 ± 0.37
3,TTTTTTTTTTTGGCTAGTACATATGTATTTAAAATG [XGTACX_site7770],8.6 ± 0.47
4,GGTGAAATTATTTCTACATGCAGAAATAATTAATTA [TGCATGCA_site194],8.52 ± 0.37
5,AATTTAATATAATGCACACATAAAAAAAAAATCAAA [CACACA_site1],8.93 ± 0.37
6,ACATAAATAATAAAAACACACATATGTACCTATATA [CACACA_site6982],9.04 ± 0.47
7,AAATTATTTCTTTGCGCATGTAGCTTTTATACTATT [TGCATGCA_site819],9.21 ± 0.49
8,AATACATGCTAAAAACGTACACGTATAAAATTATAT [XGTACX_site3169],8.95 ± 0.5
9,AAAAAAAAAAAAAATTGTACATTAAATTAAAAGAAA [XGTACX_site8708],8.3 ± 0.71
10,AAGAAAATATAAAATGCACACTATAAATTGTATATA [CACACA_site7928],8.9 ± 0.38
11,AAAAAAAAAAATACTTGTACTTATATAATATATTAT [XGTACX_site8333],8.51 ± 0.53
12,TGTTGTTCCAATTTTTGTACATAAAACATATATATA [XGTACX_site5719],8.69 ± 0.43
13,TATATATATATTTATACACACACATATATTTATATA [CACACA_site8054],9.13 ± 0.29
14,TTTTTAATATATTAGGTGCACAATAATACACTTTAT,8.74 ± 0.43
15,ATTAGTATAATGTAACTTAGTTAATAGTGCTAATAT [CACACA_negctrl_site764],8.93 ± 0.4
16,CAAAAGTAAGCACGCACACACAACATGAAATAAAAT [CACACA_site165],9.96 ± 0.42
17,TATACACTTATTGGTGGTACAATATATAAATATATG [XGTACX_site3289],8.66 ± 0.34
18,TTTTGATCTGAAGGAACCTAAAAAGGGAAGAGAAAA [CACACA_negctrl_site1656],8.45 ± 0.52
19,AAAAAAAACACGCGCACACACACACCCACCCACCGA [CACACA_site2206],10.32 ± 0.078
20,ACAAAATAAAACATCTGTACATATTATTATTATAAG [XGTACX_site4802],8.7 ± 0.38
21,TATATTTATAACAACACACACAGATCATAAAACTGC [CACACA_site7086],9.34 ± 0.27
22,AAAAAAAAAAAAAAAACACACACATGCACATCATAT [CACACA_site8083],9.56 ± 0.33

# From the supplement of paper PMC11417369
